# This is one part of the list.
# B1: Si Bti9 1b-HA (Solanum lycopersicum) (protein)
# chain: MFESRPRSVLSLGVFVILVYLSSVPLPVNSQCNRGCDLALASFYVWRGSNLTLISEMFSTSIADIVSYNNRDNIPNQDSVIAGTRINIPFRCDCLNDGEVLGHAFPYRVKSGDTYDLVARNYSDLTTAQWMMKFNSYPENNIPNTVNLSVVVNCSCGNSDVSKDFGLFVTYPVRAEDNLTSVASAANVSEDIIRRYNPAAVSILDIGQGIIYIPGRDRNGNFPPLPTSTDGLSGGAKAPLFFNPAFLYKVVELKLAGRSRTSGYPYDVPDYAGYPYDVPDYALEVLFQ
# Legend:
# Assay in all cases: glycan array binding signal (z-score within array); higher = stronger binding
# Settings in all cases: glycan notation: IUPAC condensed, linker removed
# [1] = molecular target: Gal(b1-4)GlcNAc(b1-3)Gal(b1-4)GlcNAc(b1-3)Gal(b1-4)GlcNAc(b1-3)Gal(b1-4)GlcNAc(b1-2)Man(a1-3)[Gal(b1-4)GlcNAc(b1-3)Gal(b1-4)GlcNAc(b1-3)Gal(b1-4)GlcNAc(b1-3)Gal(b1-4)GlcNAc(b1-2)Man(a1-6)]Man(b1-4)GlcNAc(b1-4)[Fuc(a1-6)]GlcNAc
# Procedure, shortened: (§1)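 The binding signal is a Z-score computed within each array. Data were drawn from 3228 arrays in the Consortium for Functional Glycomics database, restricted to those with a known protein sequence. Scores were averaged over arrays of the same protein sequence at different concentrations or buffers, and over linkers, and negative values can be taken as non-binding.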
# [2] = molecular target: Gal(b1-4)GlcNAc(b1-3)Gal(b1-4)GlcNAc(b1-3)Gal(b1-4)GlcNAc(b1-3)Gal(b1-4)GlcNAc(b1-2)[Gal(b1-4)GlcNAc(b1-3)Gal(b1-4)GlcNAc(b1-3)Gal(b1-4)GlcNAc(b1-3)Gal(b1-4)GlcNAc(b1-6)]Man(a1-6)[Gal(b1-4)GlcNAc(b1-3)Gal(b1-4)GlcNAc(b1-3)Gal(b1-4)GlcNAc(b1-3)Gal(b1-4)GlcNAc(b1-2)Man(a1-3)]Man(b1-4)GlcNAc(b1-4)[Fuc(a1-6)]GlcNAc
# Procedure, shortened: as §1
# [3] = molecular target: Gal(b1-4)GlcNAc(b1-3)Gal(b1-4)GlcNAc(b1-3)Gal(b1-4)GlcNAc(b1-3)Gal(b1-4)GlcNAc(b1-3)Gal(b1-4)GlcNAc(b1-2)Man(a1-3)[Gal(b1-4)GlcNAc(b1-3)Gal(b1-4)GlcNAc(b1-3)Gal(b1-4)GlcNAc(b1-3)Gal(b1-4)GlcNAc(b1-3)Gal(b1-4)GlcNAc(b1-2)Man(a1-6)]Man(b1-4)GlcNAc(b1-4)GlcNAc
# Procedure, shortened: as §1
# [4] = molecular target: Gal(b1-4)GlcNAc(b1-3)Gal(b1-4)GlcNAc(b1-3)Gal(b1-4)GlcNAc(b1-3)Gal(b1-4)GlcNAc(b1-3)Gal(b1-4)GlcNAc(b1-2)Man(a1-3)[Gal(b1-4)GlcNAc(b1-3)Gal(b1-4)GlcNAc(b1-3)Gal(b1-4)GlcNAc(b1-3)Gal(b1-4)GlcNAc(b1-3)Gal(b1-4)GlcNAc(b1-2)Man(a1-6)]Man(b1-4)GlcNAc(b1-4)[Fuc(a1-6)]GlcNAc
# Procedure, shortened: as §1
# [5] = molecular target: Gal(b1-4)GlcNAc(b1-3)Gal(b1-4)GlcNAc(b1-3)Gal(b1-4)GlcNAc(b1-3)Gal(b1-4)GlcNAc(b1-3)Gal(b1-4)GlcNAc(b1-2)[Gal(b1-4)GlcNAc(b1-3)Gal(b1-4)GlcNAc(b1-3)Gal(b1-4)GlcNAc(b1-3)Gal(b1-4)GlcNAc(b1-3)Gal(b1-4)GlcNAc(b1-6)]Man(a1-6)[Gal(b1-4)GlcNAc(b1-3)Gal(b1-4)GlcNAc(b1-3)Gal(b1-4)GlcNAc(b1-3)Gal(b1-4)GlcNAc(b1-3)Gal(b1-4)GlcNAc(b1-2)Man(a1-3)]Man(b1-4)GlcNAc(b1-4)[Fuc(a1-6)]GlcNAc
# Procedure, shortened: as §1
# [6] = molecular target: Gal(b1-4)GlcNAc(b1-3)Gal(b1-4)GlcNAc(b1-3)Gal(b1-4)GlcNAc(b1-3)Gal(b1-4)GlcNAc(b1-3)Gal(b1-4)GlcNAc(b1-3)Gal(b1-4)GlcNAc(b1-2)Man(a1-3)[Gal(b1-4)GlcNAc(b1-3)Gal(b1-4)GlcNAc(b1-3)Gal(b1-4)GlcNAc(b1-3)Gal(b1-4)GlcNAc(b1-3)Gal(b1-4)GlcNAc(b1-3)Gal(b1-4)GlcNAc(b1-2)Man(a1-6)]Man(b1-4)GlcNAc(b1-4)GlcNAc
# Procedure, shortened: as §1
# [7] = molecular target: Gal(b1-4)GlcNAc(b1-3)Gal(b1-4)GlcNAc(b1-3)GalNAc
# Procedure, shortened: as §1
# [8] = molecular target: Gal(b1-4)GlcNAc(b1-3)Gal(b1-4)GlcNAc(b1-3)[Gal(b1-4)GlcNAc(b1-3)Gal(b1-4)GlcNAc(b1-6)]GalNAc
# Procedure, shortened: as §1
# [9] = molecular target: Gal(b1-4)GlcNAc(b1-3)Gal(b1-4)GlcNAc(b1-6)[Gal(b1-3)]GalNAc
# Procedure, shortened: as §1
# [10] = molecular target: Gal(b1-4)GlcNAc(b1-3)Gal(b1-4)[Fuc(a1-3)]GlcNAc(b1-3)Gal(b1-4)[Fuc(a1-3)]GlcNAc
# Procedure, shortened: as §1
# [11] = molecular target: Gal(b1-4)GlcNAc(b1-3)GalNAc
# Procedure, shortened: as §1
# [12] = molecular target: Gal(b1-4)GlcNAc(b1-3)[Fuc(a1-3)GlcNAc(b1-6)]Gal(b1-4)Glc
# Procedure, shortened: as §1
# [13] = molecular target: Gal(b1-4)GlcNAc(b1-3)[Gal(b1-4)GlcNAc(b1-6)]Gal(b1-4)GlcNAc
# Procedure, shortened: as §1
# [14] = molecular target: Gal(b1-4)GlcNAc(b1-3)[GlcNAc(b1-6)]Gal(b1-4)GlcNAc
# Procedure, shortened: as §1
# [15] = molecular target: Gal(b1-4)GlcNAc(b1-6)Gal(b1-4)GlcNAc
# Procedure, shortened: as §1
# [16] = molecular target: Gal(b1-4)GlcNAc(b1-6)GalNAc
# Procedure, shortened: as §1
# [17] = molecular target: Gal(b1-4)GlcNAc(b1-6)[Gal(b1-3)]GalNAc
# Procedure, shortened: as §1
# [18] = molecular target: Gal(b1-4)GlcNAc(b1-6)[Gal(b1-4)GlcNAc(b1-3)]GalNAc
# Procedure, shortened: as §1
# Gal(b1-4)GlcNAc6P = molecular target: Gal(b1-4)GlcNAc6P
# Procedure, shortened: as §1
# Gal(b1-6)Gal = molecular target: Gal(b1-6)Gal
# Procedure, shortened: as §1
# Gal3S(b1-3)GalNAc = molecular target: Gal3S(b1-3)GalNAc
# Procedure, shortened: as §1
# Gal3S(b1-3)GlcNAc = molecular target: Gal3S(b1-3)GlcNAc
# Procedure, shortened: as §1
# [19] = molecular target: Gal3S(b1-3)[Fuc(a1-4)]GlcNAc
# Procedure, shortened: as §1
# Gal3S(b1-4)Glc = molecular target: Gal3S(b1-4)Glc
# Procedure, shortened: as §1
# Gal3S(b1-4)Glc6S = molecular target: Gal3S(b1-4)Glc6S
# Procedure, shortened: as §1
# Gal3S(b1-4)GlcNAc = molecular target: Gal3S(b1-4)GlcNAc
# Procedure, shortened: as §1
# [20] = molecular target: Gal3S(b1-4)[Fuc(a1-3)]Glc6S
# Procedure, shortened: as §1
# [21] = molecular target: Gal3S(b1-4)[Fuc(a1-3)]GlcNAc
# Procedure, shortened: as §1
# [22] = molecular target: Gal3S(b1-4)[Fuc(a1-3)]GlcNAc6S
# Procedure, shortened: as §1
# Gal3S4S(b1-4)GlcNAc = molecular target: Gal3S4S(b1-4)GlcNAc
# Procedure, shortened: as §1
# Gal3S6S(b1-4)GlcNAc = molecular target: Gal3S6S(b1-4)GlcNAc
# Procedure, shortened: as §1
# Gal3S6S(b1-4)GlcNAc6S = molecular target: Gal3S6S(b1-4)GlcNAc6S
# Procedure, shortened: as §1
# Gal4S(b1-4)GlcNAc = molecular target: Gal4S(b1-4)GlcNAc
# Procedure, shortened: as §1
# Gal4S6S(b1-4)GlcNAc = molecular target: Gal4S6S(b1-4)GlcNAc
# Procedure, shortened: as §1
# Gal6P(b1-4)GlcNAc = molecular target: Gal6P(b1-4)GlcNAc
# Procedure, shortened: as §1
# Gal6S(b1-3)GlcNAc = molecular target: Gal6S(b1-3)GlcNAc
# Procedure, shortened: as §1
# Gal6S(b1-3)GlcNAc6S = molecular target: Gal6S(b1-3)GlcNAc6S
# Procedure, shortened: as §1
# Gal6S(b1-4)Glc = molecular target: Gal6S(b1-4)Glc
# Procedure, shortened: as §1
binder,measurement,setting,value
B1,glycan array binding signal (z-score),[1],0.285
same,glycan array binding signal (z-score),[2],0.268
same,glycan array binding signal (z-score),[3],0.163
same,glycan array binding signal (z-score),[4],-0.115
same,glycan array binding signal (z-score),[5],0.031
same,glycan array binding signal (z-score),[6],-0.028
same,glycan array binding signal (z-score),[7],0.063
same,glycan array binding signal (z-score),[8],0.787
same,glycan array binding signal (z-score),[9],0.615
same,glycan array binding signal (z-score),[10],-0.375
same,glycan array binding signal (z-score),[11],-0.453
same,glycan array binding signal (z-score),[12],-0.397
same,glycan array binding signal (z-score),[13],-0.451
same,glycan array binding signal (z-score),[14],-0.382
same,glycan array binding signal (z-score),[15],-0.126
same,glycan array binding signal (z-score),[16],0.137
same,glycan array binding signal (z-score),[17],-0.301
same,glycan array binding signal (z-score),[18],-0.273
same,glycan array binding signal (z-score),Gal(b1-4)GlcNAc6P,-0.072
same,glycan array binding signal (z-score),Gal(b1-6)Gal,0.567
same,glycan array binding signal (z-score),Gal3S(b1-3)GalNAc,-0.275
same,glycan array binding signal (z-score),Gal3S(b1-3)GlcNAc,-0.447
same,glycan array binding signal (z-score),[19],-0.237
same,glycan array binding signal (z-score),Gal3S(b1-4)Glc,2.57
same,glycan array binding signal (z-score),Gal3S(b1-4)Glc6S,1.4
same,glycan array binding signal (z-score),Gal3S(b1-4)GlcNAc,-0.032
same,glycan array binding signal (z-score),[20],-0.11
same,glycan array binding signal (z-score),[21],-0.169
same,glycan array binding signal (z-score),[22],1.12
same,glycan array binding signal (z-score),Gal3S4S(b1-4)GlcNAc,-0.107
same,glycan array binding signal (z-score),Gal3S6S(b1-4)GlcNAc,-0.308
same,glycan array binding signal (z-score),Gal3S6S(b1-4)GlcNAc6S,-0.206
same,glycan array binding signal (z-score),Gal4S(b1-4)GlcNAc,-0.358
same,glycan array binding signal (z-score),Gal4S6S(b1-4)GlcNAc,-0.541
same,glycan array binding signal (z-score),Gal6P(b1-4)GlcNAc,1.29
same,glycan array binding signal (z-score),Gal6S(b1-3)GlcNAc,-0.431
same,glycan array binding signal (z-score),Gal6S(b1-3)GlcNAc6S,-0.215
same,glycan array binding signal (z-score),Gal6S(b1-4)Glc,-0.456

# Source: the supplement of paper PMC8728848
